Results: the supplement of paper PMC12217912
Some of the results follow. The full chains were built here from the parent and the listed change. Inactive controls read about 0.05.

B1: TEV protease; numbered along this chain (parent)
chain: MGESLFKGPRDYNPISSSICHLTNESDGHTTSLYGIGFGPFIITNKHLFRRNNGTLVVQSLHGVFKVKDTTTLQQHLVDGRDMIIIRMPKDFPPFPQKLKFREPQREERICLVTTNFQTKSMSSMVSDTSCTFPSGDGIFWKHWIQTKDGQCGSPLVSTRDGFIVGIHSASNFTNTNNYFTSVPKNFMELLTNQEAQQWVSGWRLNADSVLWGGHKVFMVKPEEPFQPVKEATQL

Variants of: B1
Test: raw area under fraction-flipped curve 0-4 h after induction (AUC4h, not background-subtracted), DNA-recorder readout of cleavage of the substrate (dimensionless); higher = more cleavage of the substrate by the protease variant
Conditions: temperature: 34 °C; time window: 0-4 h after rhamnose induction
Procedure: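 In vivo DNA recorder in E. coli TOP10(DE3) ΔrhaA at 34 °C. Each TEVp single-site mutant (parent TEVp 0) is paired with a single-site variant of the 7-mer TEVs (canonical ENLYFQ|S). The substrate sits between flexible linkers in a Bxb1-sfGFP-TEVs-SsrA fusion, so cleavage stabilises Bxb1 and speeds flipping of a recombination array, read by NGS. The value is the raw area under the fraction-flipped curve over 0-4 h after rhamnose induction (AUC4h), with ≥20 reads per time point. It is not background-subtracted; inactive controls average about 0.047.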
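Also: Bxb1 expression induced with 0.2% (w/v) L-rhamnose at OD600 near 0.5, cultures sampled hourly, flipped fraction per protease–substrate barcode pair counted by paired-end Illumina sequencing.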

Variant | area with substrate ENLYFQA | area with substrate ENLYFQC | area with substrate ENLYFQF | area with substrate ENLYFQG | area with substrate ENLYFQH | area with substrate ENLYFQK | area with substrate ENLYFQL | area with substrate ENLYFQM | area with substrate ENLYFQN | area with substrate ENLYFQP | area with substrate ENLYFQQ | area with substrate ENLYFQR | area with substrate ENLYFQS | area with substrate ENLYFQT | area with substrate ENLYFQV | area with substrate ENLYFQW | area with substrate ENLYFQY | area with substrate ENLYFQD | area with substrate ENLYFQE | area with substrate ENLYFQI
MGESLFKGPRDYNPISSSICHLTNESDGHTTSLYGIGFGPFIITNKHLFRRNNGTLVVQSLHGVFKVKDTTTLQQHLVDGRDMIIIRMPKDFPPFPQKLKFREPQREERICLDTTNFQTKSMSSMVSDTSCTFPSGDGIFWKHWIQTKDGQCGSPLVSTRDGFIVGIHSASNFTNTNNYFTSVPKNFMELLTNQEAQQWVSGWRLNADSVLWGGHKVFMVKPEEPFQPVKEATQL [V113D] | 0.038 | 0.0389 | 0.0591 | 0.0514 | 0.0519 | 0.0506 | 0.0455 | 0.0464 | 0.0517 | 0.0564 | 0.041 | 0.0542 | 0.0493 | 0.0541 | 0.0568 | 0.0451 | 0.0622 | – | – | –
MGESLFKGPRDYNPISSSICHLTNESDGHTTSLYGIGFGPFIITNKHLFRRNNGTLVVQSLHGVFKVKDTTTLQQHLVDGRDMIIIRMPKDFPQFPQKLKFREPQREERICLVTTNFQTKSMSSMVSDTSCTFPSGDGIFWKHWIQTKDGQCGSPLVSTRDGFIVGIHSASNFTNTNNYFTSVPKNFMELLTNQEAQQWVSGWRLNADSVLWGGHKVFMVKPEEPFQPVKEATQL [P94Q] | 0.0918 | 0.0997 | 0.0915 | 0.101 | 0.0681 | 0.0728 | 0.0636 | 0.0961 | 0.0744 | 0.0702 | 0.0641 | 0.0625 | 0.103 | 0.0674 | 0.0459 | – | 0.0878 | 0.0529 | – | –
MGESLFKGPRDYNPISSSICHLTNESDGHTTSLYGIGFGPFIITNKHLFRRNNGTLVVQSLHGVFKVKDTTTLQQHLVDGRDMIIIRMPKDFPPFPQKLKFREPQREERICLVTTNFQTKSMSSMVSDTSCTFPSGDGIIWKHWIQTKDGQCGSPLVSTRDGFIVGIHSASNFTNTNNYFTSVPKNFMELLTNQEAQQWVSGWRLNADSVLWGGHKVFMVKPEEPFQPVKEATQL [F140I] | 0.0666 | 0.0614 | 0.0468 | 0.068 | 0.0569 | 0.0582 | – | 0.0624 | 0.0692 | 0.052 | – | 0.0527 | 0.064 | 0.0585 | – | 0.0643 | 0.0383 | 0.0599 | 0.0629 | 0.0511
MGESLFKGPRDYNPISSSICHLTNESDGHTTSLYGIGFGPFIITNKHLFRRNNGTLVVQSLHGVFKVKDTTTLQQHLVDGRDMIIRRMPKDFPPFPQKLKFREPQREERICLVTTNFQTKSMSSMVSDTSCTFPSGDGIFWKHWIQTKDGQCGSPLVSTRDGFIVGIHSASNFTNTNNYFTSVPKNFMELLTNQEAQQWVSGWRLNADSVLWGGHKVFMVKPEEPFQPVKEATQL [I86R] | 0.0404 | 0.0346 | – | 0.0244 | 0.0449 | – | 0.0443 | – | 0.0358 | – | – | – | 0.0427 | 0.0318 | 0.0433 | 0.0305 | 0.0248 | – | – | 0.0351
MGESLFKGPRDYNPISSSICHLTNESDGHTTSLYGIGFGPFIITNKHLFRRNNGTLYVQSLHGVFKVKDTTTLQQHLVDGRDMIIIRMPKDFPPFPQKLKFREPQREERICLVTTNFQTKSMSSMVSDTSCTFPSGDGIFWKHWIQTKDGQCGSPLVSTRDGFIVGIHSASNFTNTNNYFTSVPKNFMELLTNQEAQQWVSGWRLNADSVLWGGHKVFMVKPEEPFQPVKEATQL [V57Y] | 0.104 | 0.0997 | 0.0943 | 0.083 | 0.0865 | 0.0589 | 0.0673 | – | 0.0675 | – | – | – | 0.0956 | 0.0635 | 0.0577 | – | – | 0.0882 | – | 0.0697
MGESLFKGPRDYNPISSSICHATNESDGHTTSLYGIGFGPFIITNKHLFRRNNGTLVVQSLHGVFKVKDTTTLQQHLVDGRDMIIIRMPKDFPPFPQKLKFREPQREERICLVTTNFQTKSMSSMVSDTSCTFPSGDGIFWKHWIQTKDGQCGSPLVSTRDGFIVGIHSASNFTNTNNYFTSVPKNFMELLTNQEAQQWVSGWRLNADSVLWGGHKVFMVKPEEPFQPVKEATQL [L22A] | 0.0861 | 0.0867 | 0.052 | 0.141 | 0.0617 | 0.0552 | 0.0525 | 0.0451 | – | 0.0527 | – | 0.0456 | 0.0681 | 0.0537 | 0.0542 | 0.0574 | 0.0526 | 0.0539 | – | 0.0533
MGESLFKGPRDYNPISSSICHLTNESDGHTTSLYGIGFKPFIITNKHLFRRNNGTLVVQSLHGVFKVKDTTTLQQHLVDGRDMIIIRMPKDFPPFPQKLKFREPQREERICLVTTNFQTKSMSSMVSDTSCTFPSGDGIFWKHWIQTKDGQCGSPLVSTRDGFIVGIHSASNFTNTNNYFTSVPKNFMELLTNQEAQQWVSGWRLNADSVLWGGHKVFMVKPEEPFQPVKEATQL [G39K] | 0.0411 | 0.0423 | 0.054 | 0.0216 | 0.0464 | 0.0414 | 0.0438 | 0.0446 | 0.0508 | 0.0407 | 0.0269 | 0.0363 | 0.0465 | 0.045 | – | – | – | 0.0539 | – | 0.0384
MGESLFKGPRDYNPISSSICHLTNESDGHTTSLYGIGFGPFIITNKHLFRRNNGTLVVQSLHGVFKVKDTTTLQQHLVDGRDMIIIRMPKDFPPFPQKLKFREPQREERICLVTTNFQTKSMSSMVSDTSCTFPSGDGIFWKHWIQTKDGQCGSPLVSTRDGFIVGIHAASNFTNTNNYFTSVPKNFMELLTNQEAQQWVSGWRLNADSVLWGGHKVFMVKPEEPFQPVKEATQL [S169A] | 0.139 | 0.168 | – | – | 0.122 | 0.055 | 0.0619 | 0.144 | – | – | – | 0.041 | 0.121 | 0.0655 | – | 0.0663 | 0.0958 | – | – | 0.0691
